Experimental data published in PubChem BioAssay AID1345083 (National Center for Advancing Translational Sciences (NCATS), 2018).
Several values for one entry are separate records, joined by “and”; a condition that tells them apart may be missing. Equal entries are not always repeated. In all, about 94,000 compounds went through this assay and about 6,200 (6.6%) were called active. Inconclusive means that the source gave no clear call. Such entries were picked first, then a sample of the others. Calls come from the whole dose curve; as a rule, active = well fitted inhibition curve with a large enough effect; inconclusive = small, poorly fitted or top-dose-only effect; inactive = flat fitted curve, though single readings scatter. Potencies of inconclusive entries are doubtful fits and often do not repeat.

Assay: Cytotoxic Profiling in HEK 293 Cell Line of Diverse Libraries Using Quantitative High-Throughput Screening; note: nearly all actives have a fitted effect of over 60% in size
Settings: HEK 293 viability, ATP luminescence (CellTiter-Glo), 48-72 h; activity change, negative = cytotoxicity: at 115 µM (top of the series) unless noted; series mostly up to 115 µM
In short: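 CellTiter-Glo luminescence (cellular ATP) was read after 48 or 72 hr of compound exposure at 37 degree Celsius. Cells were HEK 293 plated at 250 cells/well.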
% is set by controls: 0 for no effect and ±100 for the full control effect; potency is the fitted concentration of half-maximal effect; tags give direction and shape of the fitted curve.

Row | SMILES | outcome | Potency | activity change, negative = cytotoxicity
1 | COCCNC(=O)c1nc2cccnc2n(-c2ccc(OC)cc2)c1=O | inactive |  | 
2 | O=C(NCc1ccccc1F)c1ccc2c(c1)CN(C1CCC1)CCO2 |  | inconclusive: 89.1 µM [inhibitor, single point] | 
3 | COc1ccc(-c2nccn3cc(C(=O)O)nc23)cc1 |  |  | inactive: -5.38%
4 | CC(C)(C)CNC1(Cc2cc(COc3ccccc3)on2)COC1 |  | inconclusive: 100 µM [inhibitor, partial curve, poor fit] | 
5 | c1cn(C2CCSC2)c(-c2cc3n(n2)CCNC3)n1 (stereo not drawn) |  |  | inactive: -5.67%
6 | Cc1ccccc1C(=O)N1CCN(c2ccnc3ccnn23)CC1 |  |  | inactive: -24.4% [at 172 µM]
7 | CN(C)c1ncc2c(n1)C(C)(C(=O)NCc1cccc(F)c1)CCC2 (stereo not drawn) |  | inconclusive: 70.8 µM [inhibitor, partial curve] | 
8 | COc1ccc(CN2CCN3C(=O)N(Cc4ccccc4)C[C@H]3C2)cc1 |  | inconclusive: 70.8 µM [inhibitor, partial curve, poor fit] | 
9 | O=C1Nc2ccccc2C12CCN(c1cc(C3CC(O)C3)ncn1)CC2 (stereo not drawn) |  | inconclusive: 79.4 µM [inhibitor, single point] | 
10 | CN(c1cc(=O)c2ccnc(-c3cccc(C(F)(F)F)c3)c2o1)C1CCOCC1 |  |  | inactive: -19.2% [at 172 µM]
11 | Cn1ncc2c(C(=O)N3CCC(Cc4ccccc4)CC3)cc(-c3ccccc3C(F)(F)F)nc21 |  | active: 39.8 µM | 
12 | COc1cccc(CNC(=O)C2Cn3cccc3C(=O)N2Cc2ccccc2)c1 (stereo not drawn) |  | inconclusive: 89.1 µM [inhibitor, single point] | 
13 | COc1cccc(C(=O)N2CCc3nc(C)nc(-c4ccc(Cl)cc4)c3CC2)c1 |  | inconclusive: 56.2 µM [inhibitor, partial curve, poor fit] | 
14 | COc1ccccc1OCCNC(=O)[C@@H]1COCC(=O)N1Cc1ccc(F)cc1 |  |  | inactive: -21.4%
15 | CN(Cc1ccc(F)cc1)c1ccc2ncc(Nc3ccc4c(c3)OCO4)n2n1 |  | active: 63.1 µM | 
16 | O=C(NCC1CCCCC1)c1cn2cc(-c3ccccc3)sc2n1 |  | inconclusive: 44.7 µM [inhibitor, partial curve, poor fit] | 
17 | CCNc1cc(N2CCC(CCC(=O)N3CCCN(c4ncccn4)CC3)CC2)ncn1 |  | inconclusive: 89.1 µM [inhibitor, partial curve, poor fit] | 
18 | COC(=O)N1CCN(Cc2ccccc2-c2cccnc2)CC1 |  | inconclusive: 89.1 µM [inhibitor, partial curve, poor fit] | 
19 | O=C(NC1CCN(Cc2ccc(-c3ccsc3)cc2)C1)c1ccccc1 (stereo not drawn) |  | active: 44.7 µM | 
20 | CCCc1noc(-c2cn(C3CCN(C(=O)c4ccc(OC)c(F)c4)CC3)nn2)n1 |  |  | inactive: -21.7%
21 | COc1ccc(CN[C@@H]2C=C[C@@H](c3c(C)nn(-c4ccccc4)c3C)C2)cc1 |  | active: 28.2 µM | 
22 | COc1ccc(-c2noc([C@@H](C)NC(=O)C3CCOCC3)c2C(=O)O)cc1 |  | inconclusive: 14.1 µM [inhibitor, partial curve, poor fit] | 
23 | CCCn1ccnc1-c1c(-c2ccccc2)ncn1CCCC(=O)OC |  | inconclusive: 20 µM [inhibitor, full curve, poor fit] | 

Row | SMILES | outcome | Potency | activity change, negative = cytotoxicity
24 | COC[C@@H]1CN(Cc2cccc(OC)c2OC)C[C@H]1c1ccccn1 |  | inconclusive: 70.8 µM [inhibitor, partial curve, poor fit] | 
25 | O=[S+]([O-])(Nc1cc(C2CC2)nn1-c1ccccc1)c1ccccc1 |  |  | inactive: -12.8%
26 | CCN1c2cc(C(=O)Nc3ccc(N4CCOCC4)cc3)ccc2C(=O)N2CCCCC21 (stereo not drawn) |  | inconclusive: 31.6 µM [inhibitor, partial curve] | 
27 | O=C(c1ccc(Cl)cc1)N1CCC2(C1)C(=O)N(CCc1ccccc1)c1ccccc12 (stereo not drawn) |  | inconclusive: 44.7 µM [inhibitor, partial curve, poor fit] | 
28 | COc1ccc(OCc2cc(C(=O)NCCc3nc(C)c(C)s3)no2)c(Cl)c1 |  | active: 31.6 µM | 
29 | COc1ccc(C(=O)N2CCC(n3nccc3NC(=O)CC(C)C)CC2)cc1OC |  |  | inactive: 11.6%
30 | CC(C)(C)CC(=O)N1CCC(N2C(=O)N(Cc3cccnc3)CC23CCOC3)CC1 (stereo not drawn) |  |  | inactive: -21.8%
31 | CN(CC(=O)O)c1ncc(CN2CCn3nc(C(O)CO)cc3C2)cn1 (stereo not drawn) |  |  | inactive: 2.47%
32 | COc1ccc(-c2noc([C@@H]3CCCN3C(=O)c3cc4ccccc4[nH]3)n2)cc1OC |  |  | inactive: -13.7%
33 | COc1ccccc1-c1ccc(CN2CCC(NC(=O)c3ccncc3)C2)cc1 (stereo not drawn) |  | inconclusive: 50.1 µM [inhibitor, partial curve, poor fit] | 
34 | COc1ccc(Nc2ccnc(N3CCC(C(=O)N(C)C)CC3)n2)cc1 |  | inconclusive: 79.4 µM [inhibitor, partial curve] | 
35 | COc1ccccc1-c1cccc(CN2CCC(NC(=O)c3ccccc3C)CC2)c1 |  | active: 44.7 µM | 
36 | Cc1ccc(Cl)c(OCC(=O)c2ccc3c(c2)N(CCCC(=O)N2CCOCC2)C(=O)CO3)c1 |  | inconclusive: 50.1 µM [inhibitor, partial curve, poor fit] | 
37 | CN(C(=O)c1ccccc1Cl)C1CCc2ccccc21 (stereo not drawn) |  | inconclusive: 31.6 µM [inhibitor, partial curve, poor fit] | 
38 | O=S(=O)(c1ccccc1)N1CCc2nnc(C3CC3)n2CC1 |  |  | inactive: 0.619%
39 | COCc1cccc(-c2n[nH]c3c2CC(=O)N(Cc2ccccc2)C3)c1 |  | inconclusive: 89.1 µM [inhibitor, partial curve, poor fit] | 
40 | Cn1c(CNC(=O)CCC[C@@H]2[C@H]3CCCN4CCC[C@@H](CN2Cc2ccccc2)[C@@H]34)nc2ccccc21 |  | inconclusive: 89.1 µM [inhibitor, single point] | 
41 | CNC(=O)c1noc(CN2CCCC(CCc3ccccc3C(F)(F)F)C2)n1 (stereo not drawn) |  | inconclusive: 50.1 µM [inhibitor, partial curve, poor fit] | 
42 | O=C(NCCN1CCOCC1)C1CCCN(C2CCN(Cc3ccncc3)CC2)C1 (stereo not drawn) |  | inconclusive: 89.1 µM [inhibitor, partial curve, poor fit] | 
43 | Cc1cccc(-c2cnc3[nH]cc(CC(N)=O)c3c2)c1 |  | inconclusive: 126 µM [inhibitor, partial curve, poor fit] | 
44 | COc1ccc(C2Cn3nnc(-c4noc(-c5ccc(OC)cc5C)n4)c3CO2)cc1 (stereo not drawn) |  |  | inactive: -11.1%
45 | CCC(C)NC(=O)CN1CN(c2ccccc2)C2(CCN(C(=O)Nc3ccccc3C)CC2)C1=O (stereo not drawn) |  | inconclusive: 39.8 µM [inhibitor, full curve, poor fit] | 
46 | COCCn1ncc(N2CCCC(CC(=O)NCc3ccc(C)cc3)C2)cc1=O (stereo not drawn) |  |  | inactive: -2.53%

Row | SMILES | outcome | Potency | activity change, negative = cytotoxicity
47 | COc1ccc(-c2nnc(C[C@@H]3C[C@@H](C(C)C)[C@H](CN4CCC(O)CC4)C=C3C)o2)cc1 |  | inconclusive: 50.1 µM [inhibitor, partial curve, poor fit] | 
48 | O=C(c1ccc2c(c1)OCO2)N1CCN(c2ccc3nnc(C4CC4)n3n2)CC1 |  | inconclusive: 89.1 µM [inhibitor, single point] | 
49 | O=C(c1cccnc1)N1CCCC1c1nc(CCOCC2CC2)no1 (stereo not drawn) |  |  | inactive: -4.23%
50 | O=C(NC1CCN(c2nc3ncccc3o2)C1)c1ccc(F)cc1 (stereo not drawn) |  |  | inactive: 0.482%
51 | c1ccc(-n2cc(CN3CCCC3c3nc4ccccc4s3)nn2)cc1 (stereo not drawn) |  | inconclusive: 50.1 µM [inhibitor, partial curve, poor fit] | 
52 | Cc1cn2nc(C(=O)NCc3ccccc3)cc2c(=O)[nH]1 |  |  | inactive: 5.49%
53 | CCCc1nn(-c2cccc(C)c2)c(=O)n1CC(=O)NCC1(O)CCCCC1 |  |  | inactive: -8.45%
54 | O=C(c1cccc2cnccc12)N1CCCC2(C=Cc3ccccc3O2)CC1 (stereo not drawn) |  | active: 44.7 µM | 
55 | O=C(c1ccc2nc(-c3cccnc3)oc2c1)N1CCOCC1 |  | inconclusive: 35.5 µM [inhibitor, full curve] | 
56 | O=C(N1CCOCC2(C1)CN([S+](=O)([O-])c1ccccc1)C2)C1(c2ccccc2)CC1 |  | inconclusive: 112 µM [inhibitor, single point] | 
57 | COc1ccc(CN2C[C@@H]3[C@H](C2)N(CC2CCOCC2)C(=O)C(C)(C)[S+]3(=O)[O-])cc1O | inactive |  | 
58 | CC(C)Oc1ccc(CN2CCc3nc(N4CCN(C)CC4)[nH]c(=O)c3CC2)cc1 |  |  | inactive: 0.664%
59 | COCCCn1c(=O)c(C(=O)NCCCc2ccccc2)nc2cccnc21 |  |  | inactive: 3.83%
60 | COc1ccc(-c2nc3cc(C)ccc3cc2CN2CCCC(C(N)=O)C2)cc1 (stereo not drawn) |  | inconclusive: 79.4 µM [inhibitor, partial curve, poor fit] | 
61 | CCNc1ncnc2sc3c(c12)CCN(C(=O)c1ccnn1C)C3 |  |  | inactive: 5.44%
62 | Cn1c(=O)n([C@H]2CCCN(C(=O)c3ccc4nc[nH]c4c3)C2)c2ncccc21 |  |  | inactive: -12.5%
63 | COc1ccc(NC(=O)C[C@@H]2C[C@@H](C(C)C)[C@H](CC#N)C=C2C)cn1 |  | active: 89.1 µM | 
64 | O=C1CC2(CCN(Cc3cccs3)CC2)Oc2cc(Cl)ccc21 |  | inconclusive: 79.4 µM [inhibitor, partial curve, poor fit] and inconclusive: 89.1 µM [inhibitor, single point] | 
65 | COc1ccccc1CC(=O)N1CCCc2ncc(C(=O)N3CCCC[C@@H]3c3ccccc3)cc21 |  | inconclusive: 70.8 µM [inhibitor, partial curve, poor fit] | 
66 | Cc1nn(Cc2ccccc2)c(C)c1[C@@H]1C=C[C@@H](NC(=O)CCC(=O)O)C1 |  |  | inactive: -10% [at 172 µM]
67 | CCC1=C(C(=O)OC)C(c2ccc(C)cc2C)N2C(CC(=O)N3CCC(C)CC3)=CSC2=N1 (stereo not drawn) |  | inconclusive: 35.5 µM [inhibitor, partial curve, poor fit] | 
68 | CCOC(=O)[C@@H]1CN(C(=O)c2ccccc2OC(F)(F)F)[C@H]2c3ccc(OC)cc3O[C@@H]12 |  | inconclusive: 79.4 µM [inhibitor, partial curve] | 
